Experimental data reported in the supplement of paper PMC3334620.
Whole data set: some 33,000 sequences, median “E-score (-0.5 to 0.5)” near -0.012, cut for the highest 2% near 0.27. The list shows a part of the results.

The sequences below were run against T1, Vhr1 (UniProt P40522) (assay: PBM E-score (8-mer binding enrichment) (E-score (-0.5 to 0.5)); higher = stronger / more preferred TF binding; most listed sequences are background and not binding sites). Details: protein concentration: 200 nM; construct: GST-full length.
T1 sequence: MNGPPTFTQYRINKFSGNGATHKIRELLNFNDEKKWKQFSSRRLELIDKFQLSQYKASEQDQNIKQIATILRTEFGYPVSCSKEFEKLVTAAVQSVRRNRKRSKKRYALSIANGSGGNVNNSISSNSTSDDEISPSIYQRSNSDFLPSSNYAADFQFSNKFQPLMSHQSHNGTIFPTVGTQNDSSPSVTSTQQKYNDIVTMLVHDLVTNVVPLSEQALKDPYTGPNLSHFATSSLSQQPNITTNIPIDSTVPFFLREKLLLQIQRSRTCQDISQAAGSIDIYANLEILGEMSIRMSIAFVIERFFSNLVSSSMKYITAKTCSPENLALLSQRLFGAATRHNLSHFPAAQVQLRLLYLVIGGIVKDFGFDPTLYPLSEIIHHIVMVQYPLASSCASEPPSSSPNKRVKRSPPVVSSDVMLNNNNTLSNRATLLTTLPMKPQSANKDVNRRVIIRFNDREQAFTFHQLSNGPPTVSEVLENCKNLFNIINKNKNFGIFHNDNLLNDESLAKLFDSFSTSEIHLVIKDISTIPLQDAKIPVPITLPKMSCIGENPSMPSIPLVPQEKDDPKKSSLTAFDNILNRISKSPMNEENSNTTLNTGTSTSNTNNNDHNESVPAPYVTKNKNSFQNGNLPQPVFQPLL
Procedure, shortened: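 E-scores (a modified Wilcoxon-Mann-Whitney statistic) were assigned by the Universal PBM Analysis Suite to every ungapped eight-base word pooled with its reverse complement. The input came from universal all-10-mer Agilent arrays made double-stranded by primer extension and probed with GST-tagged yeast transcription factors at about 100-200 nM. Fluorescent anti-GST detected bound protein, and masliner normalised the scans.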

Compared with AATGTGGG, ACTGGCCC is lower in “PBM E-score” value: 0.122 for the first, 0.0921 for the second.

Compared with GCGAACAA, GCGTCTCA is lower in “PBM E-score” value: 0.108 for the first, -0.0288 for the second.

Compared with ACCGCCCA, AAGAGACA is higher in “PBM E-score” value: -0.132 for the first, 0.0149 for the second.

Compared with AACAGGGC, AATGAGAC is lower in “PBM E-score” value: 0.0287 for the first, -0.113 for the second.

Compared with TCAACCAA, ACCTTGAT is lower in “PBM E-score” value: 0.0298 for the first, 0.0042 for the second.

First: TGATGTAA
Second: GTGGTTCA
The “PBM E-score” value of the first is lower: 0.0584 for the first, 0.254 for the second.

First: TAACCGGA
Second: CACTACAC
The “PBM E-score” value of the first is lower: 0.0968 for the first, 0.163 for the second.

Compared with CGTTTGGA, CTTTGGCC is lower in “PBM E-score” value: -0.0625 for the first, -0.254 for the second.

First: CGGGCATA
Second: AAGCTGCG
The “PBM E-score” value of the first is higher: 0.0519 for the first, -0.174 for the second.

First: AATCAGTA
Second: GCGATGTA
The “PBM E-score” value of the first is lower: 0.099 for the first, 0.126 for the second.

Going from AGTACCAG to AGTCTGTG, the “PBM E-score” value rises from 0.0678 to 0.124.

First: ACCTCTGC
Second: GGACGTGA
The “PBM E-score” value of the first is lower: -0.137 for the first, -0.0205 for the second.

Compared with AATGCTTC, GAGTAAAC is higher in “PBM E-score” value: -0.166 for the first, -0.156 for the second.

Compared with ATTACGTA, GTTAGAAC is lower in “PBM E-score” value: 0.109 for the first, -0.161 for the second.

Compared with AGCTCGGG, ACTGATTG is lower in “PBM E-score” value: 0.0777 for the first, -0.00926 for the second.

First: AACCTATT
Second: AGGGAACG
The “PBM E-score” value of the first is higher: -0.103 for the first, -0.261 for the second.

Compared with CCCTAAGA, CCAAGACC is higher in “PBM E-score” value: -0.192 for the first, -0.0739 for the second.

Compared with ATCGTTCA, AGATATAA is lower in “PBM E-score” value: -0.00384 for the first, -0.00935 for the second.

First: CTTTTTCA
Second: CTAAAGAC
The “PBM E-score” value of the first is lower: -0.292 for the first, -0.288 for the second.

Going from GGCCTAAC to CAACTGCC, the “PBM E-score” value rises from -0.103 to -0.0867.

Compared with GCTAGGGA, ATCCACCC is higher in “PBM E-score” value: -0.0169 for the first, 0.24 for the second.

First: TCAGTGAA
Second: ACCTGGCG
The “PBM E-score” value of the first is higher: 0.0379 for the first, -0.0353 for the second.

Compared with CCATGATC, AAAAATCC is lower in “PBM E-score” value: 0.0523 for the first, -0.0382 for the second.

First: GATCCAGC
Second: ATTCTGGC
The “PBM E-score” value of the first is lower: 0.0577 for the first, 0.0694 for the second.

Compared with AAAGAAAC, AGCTATAA is higher in “PBM E-score” value: -0.219 for the first, -0.147 for the second.

First: CGGGGAAG
Second: ATGAGCAC
The “PBM E-score” value of the first is lower: -0.102 for the first, 0.0768 for the second.

Going from ACGTGAAG to CCACGTAC, the “PBM E-score” value rises from -0.136 to -0.0261.

Going from CAGCGAGA to AGGCTATG, the “PBM E-score” value falls from -0.0324 to -0.0464.

Going from CGTGATTA to GAGTTAAC, the “PBM E-score” value falls from 0.236 to -0.109.

First: CCAGGCGC
Second: ACGACGAC
The “PBM E-score” value of the first is lower: -0.106 for the first, -0.0433 for the second.

Compared with GAACATCA, GCTCGTCC is higher in “PBM E-score” value: -0.14 for the first, 0.00841 for the second.

First: ATGTGTAA
Second: CAGTGCGC
The “PBM E-score” value of the first is higher: 0.174 for the first, -0.156 for the second.

Going from CGTTGACC to GAAGCATC, the “PBM E-score” value falls from -0.0345 to -0.161.

Going from CCAATGGA to CAGCTGGC, the “PBM E-score” value rises from 0.0225 to 0.0577.

Going from CTTAACGC to ACCCCAGG, the “PBM E-score” value rises from -0.137 to -0.122.

First: CTGGAACC
Second: AACCAGCT
The “PBM E-score” value of the first is lower: -0.059 for the first, 0.0891 for the second.

Compared with AGTCAGAT, ATACGAGC is lower in “PBM E-score” value: 0.27 for the first, 0.171 for the second.

Compared with CATACTGG, GTTCTGTA is higher in “PBM E-score” value: 0.0817 for the first, 0.159 for the second.

Going from ACTTCAGG to AGAACATA, the “PBM E-score” value rises from -0.137 to 0.0629.

First: AAGGAACG
Second: ATCATACG
The “PBM E-score” value of the first is lower: -0.128 for the first, 0.203 for the second.

Compared with AGCCGCCG, ATACTGAA is lower in “PBM E-score” value: 0.0654 for the first, 0.00307 for the second.

First: AACACCTG
Second: ATCCGGCC
The “PBM E-score” value of the first is higher: -0.00037 for the first, -0.0203 for the second.

First: CTTGACAC
Second: GCCCTATA
The “PBM E-score” value of the first is higher: -0.125 for the first, -0.159 for the second.
